The whole screen tested about 52,000 compounds, of which about 4,300 (8.3%) were called active. Rule as the data show it: active = survival mostly below about 52% (no sharp cut-off); inactive = mostly above about 56%. The list shows a part of the results.
test system: DeltatarO mutant; experiment: growth inhibition of S. aureus wild type versus tarO mutant, primary screen, teichoic acid synthesis inhibitors, RN4220, OD600 (AID 463173); conditions: OD600, 18 h, stronger effect = lower value, screened at 18.75 µg/mL (by protocol)

Compound	survival
CCOc1ccc(OCC)c(NC(=O)c2cnc(SC)nc2-c2ccccc2)c1	active: 32%
Cc1ccc(C)c(NC(=O)CSc2nc3c([nH]c4ccccc43)c(=O)n2-c2ccc(F)cc2)c1	active: 32%
Cc1ccc(C)c(Cn2c(=O)n(-c3ccc(Cl)cc3)c(=O)c3c(C)c(C)sc32)c1	inactive: 76%
COc1ccc(CC(=O)NCC(c2ccc(Cl)cc2)N2CCOCC2)cc1 (stereo not drawn)	inactive: 71%
Cc1nc(-c2ccccc2)sc1CCNC(=O)C(=O)Nc1ccc(F)c(Cl)c1	active: 6%
CCOC(=O)c1c(C)oc2c1c(O)c(N=O)c1ccccc12	active: 18%
NC(=O)c1ccccc1NC(=O)CN1c2ccccc2S(=O)(=O)c2ccccc21	inactive: 92%
O=C(Nc1cc(-c2ccc(Cl)cc2)no1)c1ccc(F)cc1	inactive: 71%
CCCSCCCNC(=O)CN1C(=O)COc2ccc(S(=O)(=O)N3CCCC3)cc21	inactive: 71%
C=CCNc1nc(Cl)nc(Cl)n1	inactive: 99%
COCCc1nn2c(=O)cc(COC(=O)c3ccccc3C)nc2s1	active: -5%
Cc1ccc(C)c(N2CCN(C(=O)c3ccc4c(=O)n(CCc5ccccc5)c(=O)[nH]c4c3)CC2)c1	active: 55%
COc1cc(NC(=O)C2=CC(c3ccco3)=NS(=O)(=O)N2C)cc(OC)c1OC	inactive: 96%
O=C(COc1ccc(F)cc1)Nc1ccccc1C(=O)OCc1cc(=O)n2ccsc2n1	inactive: 77%
CCCCn1c(=O)c2oc3ccccc3c2n(Cc2ccccc2C)c1=O	inactive: 55%
CCOC(=O)c1[nH]c2c(c1Cc1ccccc1OC)C(=O)CC(c1ccccc1)C2 (stereo not drawn)	inactive: 114%
O=C(NCc1ccc(Cl)cc1)C1CCN(c2ncnc3c2nc2n3CCCCC2)CC1	inactive: 61%
O=C(OC(C(=O)NCc1cccs1)c1ccccc1Cl)c1ccco1 (stereo not drawn)	inactive: 98%
CCc1ccc(NC(=O)CSc2nc3c(c(=O)[nH]2)CN(Cc2ccc(C)cc2)CC3)cc1	inactive: 96%
CCOc1ccccc1C(=O)NCC(c1cccs1)S(=O)(=O)c1ccc(F)c(C)c1 (stereo not drawn)	inactive: 67%
O=C1c2cccc3cccc(c23)C(=O)N1c1ccncc1	inactive: 83%
COCc1cc(C)nc2c1C(=O)NC(c1ccc(Br)cc1)N2Cc1ccccc1 (stereo not drawn)	inactive: 69%

Compound	survival
COc1cccc(N2CCN(C(=O)Cn3nc(C)n4c(cc5c(OC)cccc54)c3=O)CC2)c1	inactive: 90%
CCc1ccc(-n2nnc(-c3nc(-c4ccc(C)cc4)no3)c2N)cc1	inactive: 97%
COc1cc(Cl)c(C)cc1NC(=O)Cn1c2ncccc2c(=O)n1-c1ccccc1	inactive: 91%
COc1ccc(Cl)cc1C(=O)NCc1nnnn1-c1ccccc1	inactive: 117%
COc1nnc(-c2ccc(N3CCCCC3)c(NC(=O)c3ccccc3Cl)c2)c2ccccc12	active: -1%
CCc1ccc(NC(=O)C(=O)NCC(c2cccnc2)N2CCc3ccccc3C2)cc1 (stereo not drawn)	inactive: 64%
COc1ccc(-c2cc(C)no2)cc1S(=O)(=O)NCc1ccco1	inactive: 117%
COc1ccc(-n2c(SCc3ccccc3F)nc3c([nH]c4ccccc43)c2=O)cc1OC	inactive: 68%
COc1cc(NC(=O)c2c3c(nc4ccccc24)C(=O)N(C2CCCCC2)C3)cc(OC)c1	inactive: 117%
CCOC(=O)c1c(-c2ccc(C)cc2)csc1NC(=O)c1cc(=O)c2cc(C)cc(C)c2o1	inactive: 111%
NS(=O)(=O)c1ccc(S(=O)(=O)N(Cc2ccccc2F)CC2CCCO2)cc1 (stereo not drawn)	inactive: 75%
O=C(CSc1c2c(nc3cc(Cl)ccc13)CCCC2)N1CCN(c2ccccc2)CC1	active: 33%
CC1CCN(C(=O)Cn2cc(SCC(=O)Nc3ccccc3)c3ccccc32)CC1	inactive: 67%
COc1cccc(-c2nc(SCC(=O)NCc3ccco3)c3c(=O)n(C)c(=O)n(C)c3n2)c1	inactive: 73%
CCOC(=O)c1noc2ncnc(N3CCN(c4cccc(C(F)(F)F)c4)CC3)c12	inactive: 82%
Cc1ccc(C(=O)Nc2nc3nc(-c4ccccc4)cc(=O)n3[nH]2)cc1	inactive: 121%
CCCCCOC(=O)CSc1nc2sc3c(c2c(=O)n1-c1ccccc1)CC(C)(CC)OC3 (stereo not drawn)	active: 36%
O=C(Nc1cc(-c2ccccc2F)nn1-c1ccccc1)c1ccccc1Br	inactive: 84%
Cc1ccc(S(=O)(=O)Cc2nc(-c3ccc(C(=O)NCc4ccccc4C)cc3)oc2C)cc1	inactive: 101%
COc1ccc(Cn2ccn(Cc3cccc(Cl)c3)c(=O)c2=O)cc1	inactive: 112%
CC(=O)c1ccc(NC(=O)C2=CC(c3ccc(C)cc3)=NS(=O)(=O)N2C)cc1	inactive: 67%
CCCn1cc(S(=O)(=O)c2ccc(OC)cc2)c(=O)c2cc(F)c(N3CCCC(C)C3)cc21 (stereo not drawn)	inactive: 76%

Compound	survival
Cc1ccn2c(=O)cc(CSc3nnc(C)s3)nc2c1	inactive: 77%
COc1ccc(OC)c(C(=O)CSc2ncc3c(n2)-c2ccccc2N(Cc2ccccc2C)S3(=O)=O)c1	inactive: 60%
Cc1cccc(CCn2c(=O)c3ccccc3n(CC(=O)Nc3ccccc3F)c2=O)c1	inactive: 76%
CCN(Cc1ccccc1)Cc1c(O)ccc2c(=O)c(-c3ccc(Cl)cc3)c(C(F)(F)F)oc12	inactive: 67%
Cc1ccc(C)c(N2CCN(CCCNC(=O)c3cnn(-c4ccccc4)c3C3CCN(C(=O)OC(C)(C)C)CC3)CC2)c1	inactive: 104%
O=C(NCc1ccccc1Cl)c1c2c(nc3ccccc13)C(=O)N(C1CCCCC1)C2	inactive: 92%
Cc1ccc2c(c1)N(CC(=O)N1CCCC1)C(=O)C(C)O2 (stereo not drawn)	inactive: 91%
CCCCC(=O)Nc1ccc(OCc2cc(=O)n3c(C)csc3n2)cc1	inactive: 102%
COC(=O)CCCCCn1c(-c2ccccc2)cn2c3c(=O)n(C)c(=O)n(C)c3nc12	inactive: 128%
COC(=O)c1oc2ccc(Cl)cc2c1C	inactive: 65%
CC(=O)c1cccc(NC(=O)[C@H]2O[C@@H]3OC(C)(C)O[C@@H]3[C@H]3OC(C)(C)O[C@H]32)c1	inactive: 117%
COc1ccc(-c2nc3scc(CCNS(=O)(=O)c4ccc(Oc5ccccc5)cc4)n3n2)cc1	inactive: 81%
CCOC(=O)c1ccc(NC(=O)C(C)Sc2nc(=O)cc(N)n2CCc2ccccc2)cc1 (stereo not drawn)	inactive: 66%
COc1ccc(OCC(=O)N(Cc2sccc2C)C2CCS(=O)(=O)C2)cc1 (stereo not drawn)	inactive: 77%
CS(=O)(=O)N(CC(=O)NCc1ccncc1)c1ccccc1	inactive: 85%
CCN(CC)CCCNC(=O)c1cn(CC(C)C)c(=O)c2c1c1ccccc1n2C	inactive: 153%
COc1ccc(-c2nnc(SCC(=O)N3CCc4ccccc43)o2)cc1OC	inactive: 75%
Cc1ccc2nc(-c3ccsc3)c(Nc3ccc(Cl)cc3)n2c1	inactive: 73%
Cc1cccc(-c2noc(-c3ccccc3OCC(=O)Nc3ccccc3[N+](=O)[O-])n2)c1	inactive: 94%
Cc1ccn2cc(CNC(=O)c3cccc(C(F)(F)F)c3)nc2c1	inactive: 97%
COc1ccccc1Nc1c2c(nc3ccc(NC(=O)c4ccccc4F)cc13)CCCC2	inactive: 82%
COCCN=Cc1c(NCCOC)nc2ccccn2c1=O	inactive: 103%

Compound	survival
COc1ccc(Cn2nnnc2CN2CCC(NC(=O)c3cccc(OC)c3)CC2)cc1	inactive: 111%
COC(=O)c1sccc1S(=O)(=O)N(CC(=O)NCc1ccc(C)cc1)c1ccc(C)c(C)c1	inactive: 68%
CCOc1ccc(N2C(=O)CC(N3CCC(O)(c4ccc(Cl)cc4)CC3)C2=O)cc1 (stereo not drawn)	inactive: 86%
COc1ccc(CCN(Cc2nc3ccccc3c(=O)[nH]2)C(=O)C(C)C)cc1	inactive: 101%
Cc1cc(NC(=O)c2cc(Cl)ccc2Cl)ccc1-c1cc2ccccc2oc1=O	inactive: 121%
COc1cccc(N(CC(=O)N2CCC(C(N)=O)CC2)S(C)(=O)=O)c1	inactive: 95%
NS(=O)(=O)c1ccc(NC(=O)COc2ccc(S(=O)(=O)NC3CCCCC3)cc2)cc1	inactive: 75%
CCN(CC)C(=O)Cn1c(=O)n(Cc2ccc(C(=O)NCCCOC)cc2)c(=O)c2ccccc21	inactive: 80%
Cc1ccc(C)c(N2C(=O)N(Cc3cccc(C(F)(F)F)c3)c3ccccc3S2(=O)=O)c1	inactive: 88%
CCn1c2c(c(=O)n3ncc(C(=O)N4CCN(c5ccc(C(C)=O)cc5)CC4)c13)CN(Cc1ccc(OC)cc1)CC2	inactive: 126%
Cc1ccc(C)c(NC(=O)N2CCN3CCCCC3C2)c1 (stereo not drawn)	inactive: 69%
COc1ccc(F)cc1S(=O)(=O)Nc1ccc2c(c1)CCCN2C(=O)c1cccs1	inactive: 73%
COc1ccc(C(=O)CCC(=O)Nc2ccc(F)cc2F)cc1	inactive: 84%
CCOC(=O)c1c(NC(C)=O)sc2c1CCC2	inactive: 77%
CN1C(=O)c2ccccc2Sc2ccc(NC(=O)NCc3ccc(Cl)cc3)cc21	inactive: 96%
Cc1ccc(CCNC(=O)CN2C(=O)COc3ccc(S(=O)(=O)N4CCCCCC4)cc32)cc1	inactive: 80%
O=C(Nc1cccc(Cl)c1)c1cc(-c2ccc3c(c2)OCO3)on1	inactive: 77%
COc1cc(OC)cc(C(=O)Nc2ccc3nc4n(c(=O)c3c2)CCCCC4)c1	inactive: 95%
COc1ccccc1C(=O)Oc1c(Sc2ccccc2)c(C)nn1-c1ccccc1	inactive: 62%
COc1cccc(-n2nnc(-c3nc(-c4cccs4)no3)c2N)c1	inactive: 74%
COc1ccc(NS(=O)(=O)c2ccc3[nH]c(=O)ccc3c2)cc1OC	inactive: 98%
CCOc1ccc(S(=O)(=O)Nc2cccc(OC)c2)c2cccnc12	inactive: 101%
